# The list shows a part of the results. At the low end of the ranking the order means little. The protein was read in a cell extract, so binding may be indirect.
# Target: T1, HNF4alpha2 (COS-7 nuclear extract) (UniProt P41235)
# T1 sequence: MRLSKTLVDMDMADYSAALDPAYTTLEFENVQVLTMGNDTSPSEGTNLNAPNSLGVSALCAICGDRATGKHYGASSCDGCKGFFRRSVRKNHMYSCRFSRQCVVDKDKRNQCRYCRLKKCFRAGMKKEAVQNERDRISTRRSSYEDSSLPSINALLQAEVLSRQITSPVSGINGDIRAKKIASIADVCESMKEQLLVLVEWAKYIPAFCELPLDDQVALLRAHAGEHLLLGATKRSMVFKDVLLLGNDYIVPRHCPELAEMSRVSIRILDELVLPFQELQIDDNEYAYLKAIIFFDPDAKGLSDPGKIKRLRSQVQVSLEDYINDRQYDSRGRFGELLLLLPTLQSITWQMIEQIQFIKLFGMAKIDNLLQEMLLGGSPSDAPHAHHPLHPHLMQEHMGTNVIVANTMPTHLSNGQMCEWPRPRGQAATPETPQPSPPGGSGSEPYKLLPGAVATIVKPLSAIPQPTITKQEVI
# Experiment: protein-binding microarray
# Conditions: COS-7 nuclear extract on double-stranded Agilent 4x180k PBM; binding buffer, salt, pH and temperature not given; high values mean tight binding; double strand, one strand shown; sequences stand for … in …GCCTAGGGAGATTAGAGTATCGGTCGA
row,Sequence,binding signal (log2 normalized intensity)
1,TCAGAAAGCAGAAGTTCTAGGAGCCTGGAC,-1.16
2,TAAATACCATTAGGGGGCAATTTCCCTGGT,0.585
3,TAAGCATAACTGGTTCAACCTGTTTCCACT,-1.11
4,GACTTAGCACAGGAAAGGGCTTTGGGGACT,-0.873
5,TCCAAAGTATTTTCTGTCTAGGTGCCAGAA,0.423
6,GCAGCGCGGGGCTCAAAGGCGGCCCGGGTG,-1.2
7,GGAGAGATAAGAAAAACTGAGCTTTAGATA,-1.16
8,CACAGAAGCATGGATGAATGAGTTTCCAGA,-0.499
9,GCTTGTCAGACAAGTTGCAGGGATGGACTT,3.12
10,CCCTCCCCCACCCGCGGTCCGTCCCTCCTG,5.36
11,CCTGGACTCTAGAGCCAGACTAGTATTGAG,0.877
12,CAGGATGGGCTCCTGCCTTGGAGAAGTGAA,-1.14
13,GCTATTTGCATCAGCAGAGGACAGAAGAAG,-1.18
14,TACACAAGCAATAGGGTTCGGTGCAATAAC,-1.07
15,GGAAGTACTGCCCTTAACTCCCGGCACTCT,-1.11
16,GTTGTTCCTTTTCTTTCACATACAAAATTT,0.634
17,TGGCCTTAGGGTGAGGCATCTGGACCATTG,1.58
18,CCTCAGGCCTTTGGACCCAGACTGAATCAC,2.64
19,AGAGAAACCTGGCTGCGAGTCCCTGCTGTG,-1.17
20,AATTTGATCCAGTGTGCAAATGTGTCTTTT,1.68
21,ATAGGAGGATTTTATTCAGGTGGCCACTGG,1.03
22,ACCTAGAGGCCTTTCTCTCTGCACGAAAAA,-1.04
23,GACCCGTGAATCCTTAAGATTCCTGCTCTA,-1.16
24,TTTCAACATTTAACTTAACCACTCAATCAG,-1.18
25,TGCAGGGATGGACTTTAATCTCCAAGTAAC,4.59

row,Sequence,binding signal (log2 normalized intensity)
1,ACGGGTAAATCCGGTTTGGGGACTTCTCCC,-0.756
2,CGGGGGCAAGGGTCAGAGTAAAGCTCCAGT,3.73
3,AGGGAGGGGAGAGGGGGTTAAAGGTTATTT,4.97
4,TTGGCCTGTTTGCTGAAGGCCATGCATGGT,0.988
5,CTGGGGTTAGCCAAACAAATGGAGAAGGTC,0.627
6,AATGAAAGGTTAACCTGCTGGTTTACAACA,-0.835
7,AGTTGCTCAAACCAACATTATTAGCAGCAG,-1.18
8,TATGTTAATGGCAGAATCAAAGGTCAAAAT,4.54
9,TTGCTATGCAAACAGACTGGCGGCGTTTCG,-1.17
10,CTGGTGTAGTGGGGAGGGCATGGACTTTGG,5.45
11,GAGAGGACTACAGGCCCTGCATTTTTAGGC,-1.12
12,GCGCAAACTATCTAAACAGACTAGTACAAC,-0.962
13,GCCCTGAGCCAAGGGAGCACAACCCGGGCG,-1.06
14,TTAAGATGATATAGCTGTTCATTAGACTCA,0.162
15,CTTTCCTGGTGCCTCCTTATCTCCCCAACT,3.39
16,GCCAATCTGCTTAAAGGCAAAGTCCAGAAC,3.82
17,CAGTCATGGAGGCATCATAAACTCCAACTC,-0.992
18,AAGCCTTTGAACTGTGTTGCAAATTATTAC,0.444
19,CCTGGTAAGTTCCACTGCATCAGTGCTGAC,-1.12
20,GGAGTCCAGAGTTCAGGTAGAGGGATTCCC,1.68
21,GACGATGGTTTTCCAATCTGGTGAAAGATG,1.05
22,GTCAACTCCTCCAAGCCACCTTCCCGGCCT,-0.918
23,GACTGCAAAATAGACAAACAGCAATAGCAA,-1.15
24,GGCTTCCATTCTCAGGCAGATGGGCAGCAC,-1.27
25,AGGGAGGTAGTCGCCCTCCGTCGTGGCCTG,-1.09

row,Sequence,binding signal (log2 normalized intensity)
1,GGTAAAATAAGGCTGCGACCTGCTGGGCTG,-1.03
2,TCCAGAAAGCAACAAAAACCAAATCACAAT,-1.12
3,CTGGAGATAATAGTGGCTGAAAGTACTGGC,-0.923
4,GGGCACTGCCCTTTGGAACCTGCCCTCTGT,4.63
5,ATGCCCGGCCGACGTGACCCGCCGCCCGAG,1.38
6,TGGGTATAGGCGCGCGTGTGTGTGTGTGTG,3.14
7,TCCAGAAATACTTGTTATATTGGATAGTGC,0.997
8,AGATGGTCAGTGAACTGTGGTTGACAGGCA,1.36
9,TACCCTACCTGTTTGCAAGCCCAAAGCCCC,2.55
10,GCATTCCAAGTGAGTAAGGAAAGCCACTTC,-1.13
11,CATGCCAGGATGGGCTCCTGCCTTGGAGAA,-1.11
12,TCAGCCTGCAAGTTAGGACAGCCCCAGGCC,-1.03
13,GCCTGCCCTTCGCTCCCCGACCTCCTGCTG,2.42
14,AAATTCCGGGGCTGGAATTTGAACCCAAGC,5.71
15,CTGAGTATTATCTTTTTAATCAATAATCTT,1.01
16,GTGTATCAATGGCCCCAGTGCACGTGCATG,1.12
17,CACTGCCCATCCCCACTGAAAGTGTGTTAA,1.93
18,TATTGGAAGAATGGAATTGCCATTGACTGA,0.347
19,ATCGAAAATCCCCCACCATTGTTATCTGAT,2.78
20,CTAGATAAGGGAGATGAAAGGGGCCTCAGA,-1.06
21,GGAGCATTAGTTGACCATTGTGTTAAAGGA,1.4
22,TCACAAGAAAGGCAGAAAACTCAGATTCCT,-1.2
23,TGGAGGCCCAGTAAGTCCCACCCACTAGGC,2.33
24,CCCTCCCTAAATCCAGAGGTATTTGGCCCA,1.59
25,AAGAGAGGAGGCTGAAGACTTTGCACCAAG,-1.09

row,Sequence,binding signal (log2 normalized intensity)
1,TGTTATCTCTGGAGGTCACTGCTGGTGGGT,2.03
2,GGTCAGCAATGTGGACTTTGTCCTGTGGGC,7.77
3,TCACTGCTCCAGCCACTCATTCTTGGAATG,-0.838
4,CGGGAGGCAAGATAAGGGTAATCACCCCCA,2.34
5,TGGAATGTGCTCCCGACTGCTCCACCAGCG,-1.1
6,AAAGTCTGGATCCGTTAACAGCGGCATTCC,-1.04
7,GTGCTCCCCCACCCTGTGTCAGCATCTAAA,3.49
8,TTGCATAATCTGGCTCCAAAGTCTATGTGT,2.47
9,AATACGCCTCGCCCGAGCTGTGCGGTAGGC,-1.17
10,GGGAGGGCACAGGTCAAAAATGATGCCTGA,0.224
11,AAACATAAAGGCAAAGGTCAAGGACTGTTC,3.51
12,CTCTCTGATTACACAGGCCTTATAGGGCAT,-1.12
13,GTGTGGATACGATGACATCATCTGTTTGTA,1.6
14,CAAGGGTCAGTTCATTAAAAAAAAAAAAAA,1.19
15,TCAAAGGGCAGACAGGAACATCTGATTTCC,-1.03
16,TGGTCCGCCTTCATTCCTAGCCCCACCAAA,4.25
17,TGGCATGTGATAGGCATGCAAACTTTGTTT,0.562
18,TCCCTCTGCTCCCCTGGCCTCACCCTTGTC,2.72
19,CTGAAAGCAAACAATGATGAAAGGAGCTTG,-0.976
20,GCACCTTTTAAAATAGATAAGTCCCTAAGA,-1.1
21,TTCCCTCGACTTCCTCTTCATATCAGTAAA,1.53
22,CAGGTCCAAGGTTCTCCAGGGACCCCCCGA,3.79
23,CTTCAAGTCAGTCAAAATGAATAGTCCTTT,1.19
24,AGAGAAGATAATGGATTGGGGGCCATGTCT,-0.23
25,AGGCTGCCGTCCTCAGTGAATCACAGCAGC,-1.08

row,Sequence,binding signal (log2 normalized intensity)
1,GCTTTCTTTCCTAATGGTACCATCTGCCAC,0.767
2,AGTCTGGTGGCAAGTACCCTTTATCCCTCA,1.18
3,TCAGAGCAGGTGAACGACTTGACAAAGGTC,3.22
4,CTGGCTAAACCAGCCTAACAGGATTTTTGC,-0.916
5,GTCTGGCTGACTAACAAGCTGCCAAACTCT,-1.21
6,TTATCATTCTAGAGGTCAGAAGTCCAAAAT,4.62
7,CTTTGCCCCCCAAGTTGAAGCCATCCTCCC,5.15
8,ACCGCACTGGAAGCAAGCCCTATTAGGCAT,-1.21
9,TTTTAAAAGTATACTATATTTGTCCCACAT,0.317
10,CTCTGACCATGCCTATAAATTGCCTGGCTT,-1.09
11,GGAGGAAAAAGAATGCCTCTTTCAAAACCT,-1.13
12,TAAGAGCTATCAATGACCCATGTTTGCCCT,3
13,CTGAGGCAAGTCTCTTTTAGGCTGTCAGCC,-0.548
14,ATGCTCAGCCCACCTTTTGGCTGTAGAAAG,0.667
15,AAGACTTCCTGGCCTCTCTGCAAATTTGCC,-0.993
16,AATGCACTTGTTCCGGATAGCCAAATAGCC,-0.596
17,AGGCATGAGAGGTGCTGCATGGGCTGAGCC,-1.21
18,TACCGACAACGCCAAGGACCGCCAAGGAAG,-1.14
19,ACAAAGGTGAGCTTTTATCTTAAGTGAGGT,1.03
20,AACCCGCCCCCTCCCCCTGCCGGCGGCGCA,6.06
21,AGGGTCTGTTTTCAAACACAGGATTGAACC,2.46
22,AGGACAGGGCCCTTCACTATTTTCAAAGGT,-0.802
23,AAAACACAGCTCACCACCTAGTAAAGGGTG,-0.998
24,TTGAAGTGACTAAATGAGAAGAAATGATGG,1.69
25,GCTCTTTGTACCGTTTGAACAGCCAAGGAA,1.07

row,Sequence,binding signal (log2 normalized intensity)
1,ACTCATGAGCCATCCTGAACAAATGTACTG,-0.853
2,CTTCCTGACTTGGCCTGAACCAGTTTCTCA,-1.16
3,CCCGGGAATTCTGGGTAGTGTAGTTCCGCT,-1.2
4,CATGGGCAAATAAAGCTAACCAGCTCTATC,-0.988
5,TGCCGCAACATTGTCCAGCAGACACGGGCA,-0.93
6,GGTCCACCGTGCGCAAACACACCCACCAAC,1.3
7,TTTGATCTGATGTACCCAGCACTGTCAGCA,-1.07
8,GGATTAAGGAGAAGGCTCCCAAGGTATCCT,-1.32
9,ACAGATGGGCTTGCCTAAGACATGCTCGCA,-0.984
10,ACCTTGCTGATTACAGGTTGCAGTAAAGAA,0.184
11,TATCTCCCAGCTGGAGTCTTCTCTATCCTT,-0.994
12,CAGTGTCACAGACTTAGCACAGGAAAGGGC,-1.02
13,GGAAATTGTCAGTGCCCTATACAGACCTTT,2.82
14,ACCCGGGTACTGGAAACTGGGCAAGGTCCA,3.46
15,GCTCACATACCACTGACTAAAGCAAGTCAG,-1.12
16,AGGGAGTGGCAGCATTGTGCTGAAAAGACT,-0.635
17,AGACCAAGGAGGCCTCTTCCCCAAACTAGG,-1.13
18,GCCTGGAGGTACCTAGGGGACATTCTTTAG,-0.918
19,ACCAGCTGCCTCTTGTGTTCACTCTAGGAA,-1.07
20,AGGGTTCAAACTCCAGCTCTGATACTTTCT,3.12
